{"source": "paper PMC4336329", "about": "(PLoS ONE, 2015)", "note": "Screen size: about 310,000 compounds; about 14,000 (4.5%) showed an effect of 50% or more. The effect is printed as a negative number. Some of the results follow.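 Note: peak tail current of the secondary pulse compared with the same well before compound.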", "data": [{"target": "human ether-à-go-go-related gene (hERG) potassium channel (human, UniProt Q12809)", "sequence (Q12809 whole entry, looked up)": "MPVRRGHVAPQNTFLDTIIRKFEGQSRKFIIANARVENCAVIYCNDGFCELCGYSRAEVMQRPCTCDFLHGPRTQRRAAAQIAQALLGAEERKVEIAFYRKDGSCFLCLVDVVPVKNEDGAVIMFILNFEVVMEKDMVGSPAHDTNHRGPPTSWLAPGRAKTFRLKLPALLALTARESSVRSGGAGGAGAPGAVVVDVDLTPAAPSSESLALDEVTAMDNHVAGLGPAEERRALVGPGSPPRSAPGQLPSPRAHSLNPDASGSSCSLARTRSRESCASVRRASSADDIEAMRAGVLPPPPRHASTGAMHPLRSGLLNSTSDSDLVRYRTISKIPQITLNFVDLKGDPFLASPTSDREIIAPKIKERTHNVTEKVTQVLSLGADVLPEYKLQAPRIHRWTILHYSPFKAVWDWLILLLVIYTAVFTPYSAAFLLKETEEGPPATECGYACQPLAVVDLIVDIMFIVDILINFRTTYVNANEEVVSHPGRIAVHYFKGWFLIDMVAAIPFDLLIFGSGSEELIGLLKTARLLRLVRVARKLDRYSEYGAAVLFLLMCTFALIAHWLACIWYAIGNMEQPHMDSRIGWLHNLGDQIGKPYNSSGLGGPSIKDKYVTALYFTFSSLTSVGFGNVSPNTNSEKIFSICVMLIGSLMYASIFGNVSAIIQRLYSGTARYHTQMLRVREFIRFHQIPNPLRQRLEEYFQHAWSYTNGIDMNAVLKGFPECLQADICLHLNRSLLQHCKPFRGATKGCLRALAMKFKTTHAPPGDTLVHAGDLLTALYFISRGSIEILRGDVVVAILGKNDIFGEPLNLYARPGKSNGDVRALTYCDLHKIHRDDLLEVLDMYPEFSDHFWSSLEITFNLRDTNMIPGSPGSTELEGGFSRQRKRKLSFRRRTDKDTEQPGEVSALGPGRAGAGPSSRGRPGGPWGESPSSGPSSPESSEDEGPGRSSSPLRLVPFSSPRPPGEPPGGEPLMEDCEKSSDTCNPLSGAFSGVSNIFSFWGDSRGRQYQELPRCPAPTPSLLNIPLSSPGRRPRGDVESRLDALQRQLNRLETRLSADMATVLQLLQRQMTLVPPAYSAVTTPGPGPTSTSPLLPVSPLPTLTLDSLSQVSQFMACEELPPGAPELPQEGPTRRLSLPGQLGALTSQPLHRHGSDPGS", "assay": "primary screen, population patch clamp on CHO cells stably expressing hERG", "units": {"hERG current change (%, negative = inhibition) at 10uM": "%"}, "values": [{"smiles": "Cc1ccccc1-n1c(Cn2c(=O)sc3ccccc32)nnc1SCC(=O)Nc1nccs1", "hERG current change (%, negative = inhibition) at 10uM": 5.61}, {"smiles": "COc1ccc(-c2csc(N(CCCN3CCOCC3)C(=O)c3ccco3)n2)cc1.Cl", "hERG current change (%, negative = inhibition) at 10uM": -32.4}, {"smiles": "O=C(Cn1cnc2c(oc3ccccc32)c1=O)c1ccccc1", "hERG current change (%, negative = inhibition) at 10uM": 2.38}, {"smiles": "CCOC(=O)N1CCN(C(=O)Cn2nc(C)c3sc4ccccc4c3c2=O)CC1", "hERG current change (%, negative = inhibition) at 10uM": -6.08}, {"smiles": "CN1CCC(N(C)C(=O)COc2ccccc2Cl)CC1", "hERG current change (%, negative = inhibition) at 10uM": -1}, {"smiles": "COCc1cc(=O)n2[nH]c(-c3ccc(C)cc3)cc2n1", "hERG current change (%, negative = inhibition) at 10uM": -28.3}, {"smiles": "CN1C[C@H](CO)C[C@@H]2c3cccc4[nH]cc(c34)C[C@H]21", "hERG current change (%, negative = inhibition) at 10uM": -7.36}, {"smiles": "Cc1cc(C)cc(N(CC(=O)NC2CCCCCC2)S(=O)(=O)c2c(C)[nH]c(=O)[nH]c2=O)c1", "hERG current change (%, negative = inhibition) at 10uM": 13.8}, {"smiles": "CCOC(=O)C=C1CCN(c2ncc(C(F)(F)F)cc2Cl)CC1", "hERG current change (%, negative = inhibition) at 10uM": 5.46}, {"smiles": "Nc1cc(=O)[nH]c(SCC(=O)Nc2cc(S(=O)(=O)N3CCOCC3)ccc2Cl)n1", "hERG current change (%, negative = inhibition) at 10uM": 1.69}, {"smiles": "Cc1nc(-c2ccccc2)sc1C(=O)CSc1ccc(F)cc1", "hERG current change (%, negative = inhibition) at 10uM": -7.92}, {"smiles": "COc1ccc(OC)c(NC(=O)c2ccc(OC3CSC3)cc2)c1", "hERG current change (%, negative = inhibition) at 10uM": -27}, {"smiles": "Cc1cc(C)n2c(SCC(=O)Nc3cc(C)on3)nnc2n1", "hERG current change (%, negative = inhibition) at 10uM": -4.82}, {"smiles": "COC(=O)c1cc(Br)c(N)cc1OC", "hERG current change (%, negative = inhibition) at 10uM": 14.3}, {"smiles": "CCn1nc(C)c(/C=N/NC(=O)Cn2nnc(N)n2)c1C", "hERG current change (%, negative = inhibition) at 10uM": -18.3}, {"smiles": "CCOc1ccc(NS(=O)(=O)c2cccc(C(=O)N(C)Cc3ccco3)c2)cc1", "hERG current change (%, negative = inhibition) at 10uM": -30.1}, {"smiles": "Cc1nc(Sc2cccn2C)c(C(F)(F)F)c(=O)[nH]1", "hERG current change (%, negative = inhibition) at 10uM": -13.4}, {"smiles": "O=C1C=C(NC(=O)Nc2ccc(Cl)c(Cl)c2)CCC1", "hERG current change (%, negative = inhibition) at 10uM": 10.5}, {"smiles": "Cc1cc(F)c(F)c(C(=O)NC2CC2)c1Cl", "hERG current change (%, negative = inhibition) at 10uM": -0.586}, {"smiles": "Cc1ccc(C(=O)Nc2cc(=O)n(C)c(=O)n2C)o1", "hERG current change (%, negative = inhibition) at 10uM": 22.3}, {"smiles": "COc1ccc(-n2c(-c3ccc(Cl)cc3)c[n+]3c2CCc2ccccc2-3)cc1.[Br-]", "hERG current change (%, negative = inhibition) at 10uM": -78.4}, {"smiles": "CN1C(=O)S/C(=C/c2cccn2-c2cccc(C(=O)O)c2)C1=O", "hERG current change (%, negative = inhibition) at 10uM": 14.5}, {"smiles": "CCCCn1c(SCC(=O)c2cc(OC)ccc2OC)nc2cc(S(N)(=O)=O)ccc21", "hERG current change (%, negative = inhibition) at 10uM": 2.15}, {"smiles": "COc1ccc(CC(=O)c2cc(OC)c(OC)cc2CC(=O)O)cc1OC", "hERG current change (%, negative = inhibition) at 10uM": 7.51}, {"smiles": "C[C@@H]1[C@H](O)C[C@@]23COC(=O)C2=CCC[C@@H]3[C@@]1(C)CC/C(=C/CO)CO", "hERG current change (%, negative = inhibition) at 10uM": 14.8}, {"smiles": "Cc1nn(CC(=O)NCCc2ccc(Cl)cc2)c(=O)c2cccn12", "hERG current change (%, negative = inhibition) at 10uM": -6.32}, {"smiles": "COc1ccccc1-c1c(NC(=O)C(C)C)n(C)c2ccccc2c1=O", "hERG current change (%, negative = inhibition) at 10uM": 6.51}, {"smiles": "Cc1ccc(C)c(N2CN(Cc3cccnc3)CNC2=S)c1", "hERG current change (%, negative = inhibition) at 10uM": 7.07}, {"smiles": "COc1cc2[nH]c(=O)n(CCCCCC(=O)NC3CCCC3)c(=O)c2cc1OC", "hERG current change (%, negative = inhibition) at 10uM": -45.6}, {"smiles": "O=C(N/N=C/c1ccc(O)c([N+](=O)[O-])c1)c1ccncc1", "hERG current change (%, negative = inhibition) at 10uM": -7.5}, {"smiles": "CCCCC(CC)C(=O)NCc1ccc(F)cc1", "note": "(stereo not shown)", "hERG current change (%, negative = inhibition) at 10uM": -1.51}, {"smiles": "O=C(CSc1nnc(COc2ccccc2)n1Cc1ccco1)c1ccc(F)cc1", "hERG current change (%, negative = inhibition) at 10uM": -21.1}, {"smiles": "Cc1ccc(-n2c(C)nn(CC3CC3)c2=O)cc1", "hERG current change (%, negative = inhibition) at 10uM": 9.03}, {"smiles": "COc1ccc(N2CCCC2=N)c(OC)c1.Cl", "hERG current change (%, negative = inhibition) at 10uM": 12.7}, {"smiles": "CC(NCC(O)COC1CCC(C(C)(C)C)CC1)c1ccccc1.Cl", "note": "(stereo not shown)", "hERG current change (%, negative = inhibition) at 10uM": -22.1}, {"smiles": "CN(C)CCN1C(=O)C(O)=C(C(=O)c2cc3ccccc3o2)C1c1ccccn1", "note": "(stereo not shown)", "hERG current change (%, negative = inhibition) at 10uM": -8.01}, {"smiles": "CS(=O)(=O)NNC(=O)c1cc2cc3ccccc3nc2s1", "hERG current change (%, negative = inhibition) at 10uM": 9.84}, {"smiles": "N#Cc1c(/N=C/N2CCCC2)oc(-c2ccccc2)c1-c1ccccc1", "hERG current change (%, negative = inhibition) at 10uM": -1.88}, {"smiles": "CCOc1ccc(C(=O)CCC(=O)O)cc1", "hERG current change (%, negative = inhibition) at 10uM": -4.71}, {"smiles": "Cn1nnnc1SCC(=O)N1CCN(Cc2ccccc2)CC1", "hERG current change (%, negative = inhibition) at 10uM": 3.85}, {"smiles": "CC(=O)Oc1c(C(=O)c2nnc(C)o2)c(=O)n(C)c2ccccc12", "hERG current change (%, negative = inhibition) at 10uM": -1.57}, {"smiles": "CCOc1ccc(S(=O)(=O)N2CCC(C(=O)NCc3ccccn3)CC2)cc1Cl", "hERG current change (%, negative = inhibition) at 10uM": -13.5}, {"smiles": "C=CCN(CC=C)c1cnn(-c2nc3ccccc3[nH]2)c(=O)c1Cl", "hERG current change (%, negative = inhibition) at 10uM": -32.1}, {"smiles": "O=C(c1ccccc1)c1c[nH]c(C(=O)NNc2cccc(Cl)n2)c1", "hERG current change (%, negative = inhibition) at 10uM": 17.6}, {"smiles": "Cc1c(C(=O)Nc2ccncc2)oc2c1C(=O)CC(C)(C)C2", "hERG current change (%, negative = inhibition) at 10uM": -18.3}, {"smiles": "CC(=O)NNC(=S)NC(=O)C(c1ccccc1)c1ccccc1", "hERG current change (%, negative = inhibition) at 10uM": -2.5}, {"smiles": "O=C(O)COc1ccccc1/C=N/n1c(C2CCCCC2)n[nH]c1=S", "hERG current change (%, negative = inhibition) at 10uM": 27.2}, {"smiles": "COc1cccc(NC(=O)CN(C)C(=O)c2cccc(S(=O)(=O)N3CCN(c4ccc(F)cc4)CC3)c2)c1", "hERG current change (%, negative = inhibition) at 10uM": -45.1}, {"smiles": "O=C1OC(Nc2ccc(Br)cc2F)c2ccccc21", "note": "(stereo not shown)", "hERG current change (%, negative = inhibition) at 10uM": -1.43}, {"smiles": "CSc1ccc(/C=C(\\C(=O)O)c2ccc(S(=O)(=O)N3CCCCC3)s2)cc1", "hERG current change (%, negative = inhibition) at 10uM": -23.9}, {"smiles": "O=C(O)CC1(CC(=O)Nc2ccc(Br)cc2)CCCCC1", "hERG current change (%, negative = inhibition) at 10uM": 13.8}, {"smiles": "Cc1cc2ncn(CCC(=O)NC3CCCC3)c2cc1C", "hERG current change (%, negative = inhibition) at 10uM": 10.1}, {"smiles": "CCN(CC)CCCN=Cc1c(O)n(CCc2ccc(F)cc2)c(=O)[nH]c1=O", "hERG current change (%, negative = inhibition) at 10uM": -56.1}, {"smiles": "CCOC(=O)N1CCC(NC(=O)c2ccc3snnc3c2)CC1", "hERG current change (%, negative = inhibition) at 10uM": -48.3}, {"smiles": "CCc1cccc(CC)c1NC(=O)CN(CC(=O)O)CC(=O)O", "hERG current change (%, negative = inhibition) at 10uM": 15}, {"smiles": "O=C(/C=N/O)NCCCN1CCCCCC1", "hERG current change (%, negative = inhibition) at 10uM": -14}, {"smiles": "Cc1ccc2c(c1)nnn2C1CCN(S(=O)(=O)c2ccc(C(=O)N3C(C)CCCC3C)cc2)CC1", "note": "(stereo not shown)", "hERG current change (%, negative = inhibition) at 10uM": -5.73}, {"smiles": "COc1ccc(C(c2nnnn2C2CCCCC2)N2CCN(c3ccccc3F)CC2)cc1", "note": "(stereo not shown)", "hERG current change (%, negative = inhibition) at 10uM": 12.8}]}]}
